Measured values reported in the RNAGym collection of RNA variant scans (doi:10.1073/pnas.2313332121).
Variants at the floor of the assay are shown more often than the library holds them.

B1: TPR 5TU (parent)
chain: GGAUCUUCUCGAUCUAACAAAAAAGACAAAUCUGCCACAAAGCUUGAGAGCAUCUUCGGAUGCAGAGGCGGCAGCCUUCGGUGGCGCGAUAGCGCCAACGUUCUCAACUAUGACACGCAAAACGCGUGCUCCGUUGAAUGGAGUUUAUCAUG

Variants of: B1
Test: polymerase ribozyme fitness, log enrichment relative to wild type (log ratio); higher = more active; in vitro selection for triplet polymerase activity
Procedure, shortened: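 In triplicate, a single round of in vitro selection was run on each mutant library, PCR-built and transcribed, covering one subunit of a heterodimeric triplet polymerase ribozyme. Frozen incubation at −7 °C followed annealing with a biotinylated primer, partner subunit and triplets, and extended constructs were then gel-excised, streptavidin-captured and taken through RT-PCR. Fitness is the logarithm of genotype enrichment over wild-type enrichment, from inverse-variance-weighted replicate averages of Illumina-sequenced inputs and outputs. […] only genotypes with ≥10 input reads and ≥1 read per output were kept.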
For G124C A142U, the “polymerase ribozyme fitness (log ratio)” value was -0.985.
For A137U, the “polymerase ribozyme fitness (log ratio)” value was -3.39.
In the case of A137G, the “polymerase ribozyme fitness (log ratio)” value is reported as -1.15.
With A137C the “polymerase ribozyme fitness (log ratio)” value was -3.09.
For C114U C118G, the “polymerase ribozyme fitness (log ratio)” value was -2.88.
With C116U G141A the “polymerase ribozyme fitness (log ratio)” value was -1.01.
With C103G U148C the “polymerase ribozyme fitness (log ratio)” value was ≤ -4.2.
In the case of G124A G140C, the “polymerase ribozyme fitness (log ratio)” value is reported as -3.89.
For C116G A120U, the “polymerase ribozyme fitness (log ratio)” value was 0.554.
With U146A the “polymerase ribozyme fitness (log ratio)” value was -0.305.
For U146C, the “polymerase ribozyme fitness (log ratio)” value was 0.00807.
With U146G the “polymerase ribozyme fitness (log ratio)” value was -0.513.
For A113C G124U A150U, the “polymerase ribozyme fitness (log ratio)” value was ≤ -4.2.
For G117U C123G A138U, the “polymerase ribozyme fitness (log ratio)” value was ≤ -4.2.
In the case of C103G U144A, the “polymerase ribozyme fitness (log ratio)” value is reported as -2.15.
In the case of A122G G124A A137U, the “polymerase ribozyme fitness (log ratio)” value is reported as ≤ -4.2.
For A138C U139A, the “polymerase ribozyme fitness (log ratio)” value was -3.78.
In the case of U111C A119U U139G U151G, the “polymerase ribozyme fitness (log ratio)” value is reported as ≤ -4.2.
For U135G A137U, the “polymerase ribozyme fitness (log ratio)” value was -4.04.
In the case of A119U C129U, the “polymerase ribozyme fitness (log ratio)” value is reported as 0.265.
For A110G A113G A137C, the “polymerase ribozyme fitness (log ratio)” value was ≤ -4.2.
For C108U A142C, the “polymerase ribozyme fitness (log ratio)” value was -3.43.
For G128U G133C U146C A150G, the “polymerase ribozyme fitness (log ratio)” value was ≤ -4.2.
With C116G U146G the “polymerase ribozyme fitness (log ratio)” value was -0.306.
In the case of C132G, the “polymerase ribozyme fitness (log ratio)” value is reported as -3.15.
In the case of C132U, the “polymerase ribozyme fitness (log ratio)” value is reported as -0.687.
With C132A the “polymerase ribozyme fitness (log ratio)” value was -2.06.
With U130C U144C A147C the “polymerase ribozyme fitness (log ratio)” value was -1.95.
In the case of C118G A122C, the “polymerase ribozyme fitness (log ratio)” value is reported as -1.49.
For G141C C149A, the “polymerase ribozyme fitness (log ratio)” value was ≤ -4.2.
In the case of C116A U151C, the “polymerase ribozyme fitness (log ratio)” value is reported as -4.09.
For C105G A107G C131U, the “polymerase ribozyme fitness (log ratio)” value was ≤ -4.2.
In the case of C114U G136C, the “polymerase ribozyme fitness (log ratio)” value is reported as -3.39.
For U139G A150C, the “polymerase ribozyme fitness (log ratio)” value was -3.84.
With C131G the “polymerase ribozyme fitness (log ratio)” value was -2.79.
For C131A, the “polymerase ribozyme fitness (log ratio)” value was -1.77.
For C131U, the “polymerase ribozyme fitness (log ratio)” value was 1.18.
In the case of A122G G133U, the “polymerase ribozyme fitness (log ratio)” value is reported as -3.59.
In the case of U148G U151A, the “polymerase ribozyme fitness (log ratio)” value is reported as -3.95.
With C105U A142C the “polymerase ribozyme fitness (log ratio)” value was -0.229.
For U135G G141U U146G, the “polymerase ribozyme fitness (log ratio)” value was ≤ -4.2.
With A115U U146G the “polymerase ribozyme fitness (log ratio)” value was -2.23.
With C108A G140C the “polymerase ribozyme fitness (log ratio)” value was ≤ -4.2.
With A107G C118U U145A the “polymerase ribozyme fitness (log ratio)” value was ≤ -4.2.
For U109C A120U, the “polymerase ribozyme fitness (log ratio)” value was ≤ -4.2.
In the case of G126A G143A, the “polymerase ribozyme fitness (log ratio)” value is reported as -1.92.
With C108U G133C A138U G140U the “polymerase ribozyme fitness (log ratio)” value was ≤ -4.2.
With G128A G133A U134C A150G the “polymerase ribozyme fitness (log ratio)” value was -3.52.
In the case of C123A G140A, the “polymerase ribozyme fitness (log ratio)” value is reported as -3.65.
In the case of A115U C118U U146C A150G, the “polymerase ribozyme fitness (log ratio)” value is reported as ≤ -4.2.
With A115U U148G the “polymerase ribozyme fitness (log ratio)” value was -4.15.
With C132U C149G the “polymerase ribozyme fitness (log ratio)” value was -3.84.
In the case of A106G C114U U127G G133C A138C U145G, the “polymerase ribozyme fitness (log ratio)” value is reported as ≤ -4.2.
In the case of C116U A121U G124U, the “polymerase ribozyme fitness (log ratio)” value is reported as -2.02.
In the case of A115U, the “polymerase ribozyme fitness (log ratio)” value is reported as -1.48.
For A115C, the “polymerase ribozyme fitness (log ratio)” value was -0.641.
In the case of A115G, the “polymerase ribozyme fitness (log ratio)” value is reported as -1.
In the case of C103G C108A, the “polymerase ribozyme fitness (log ratio)” value is reported as ≤ -4.2.
In the case of C108U A115G, the “polymerase ribozyme fitness (log ratio)” value is reported as -3.94.
In the case of U135A G136C, the “polymerase ribozyme fitness (log ratio)” value is reported as -4.14.
For A137U G141A, the “polymerase ribozyme fitness (log ratio)” value was -3.24.
In the case of G117A C123A, the “polymerase ribozyme fitness (log ratio)” value is reported as 0.34.
In the case of C118U A142C, the “polymerase ribozyme fitness (log ratio)” value is reported as -0.682.
With U145C U146G the “polymerase ribozyme fitness (log ratio)” value was 0.121.
In the case of G117A U144C, the “polymerase ribozyme fitness (log ratio)” value is reported as -2.9.
For G128A G141A G143U U144G U151A, the “polymerase ribozyme fitness (log ratio)” value was ≤ -4.2.
For C114U C123U, the “polymerase ribozyme fitness (log ratio)” value was -2.17.
In the case of C103G U145G, the “polymerase ribozyme fitness (log ratio)” value is reported as -1.87.
With U109C A137C the “polymerase ribozyme fitness (log ratio)” value was ≤ -4.2.
For G126A C129G, the “polymerase ribozyme fitness (log ratio)” value was -3.97.
In the case of A113C U134C A137C G140A U148G, the “polymerase ribozyme fitness (log ratio)” value is reported as ≤ -4.2.
With C108G U109A C118U G143A U146G the “polymerase ribozyme fitness (log ratio)” value was ≤ -4.2.
For C114U A137U, the “polymerase ribozyme fitness (log ratio)” value was -4.05.
For A120G G141C A147U, the “polymerase ribozyme fitness (log ratio)” value was -1.01.
In the case of A110G G140U A147G C149A, the “polymerase ribozyme fitness (log ratio)” value is reported as ≤ -4.2.
For C132U A150G, the “polymerase ribozyme fitness (log ratio)” value was -2.47.
In the case of A110C G112A G140C A142U, the “polymerase ribozyme fitness (log ratio)” value is reported as -4.12.
In the case of A110G A122G, the “polymerase ribozyme fitness (log ratio)” value is reported as -2.84.
In the case of A138C A142C G143A, the “polymerase ribozyme fitness (log ratio)” value is reported as ≤ -4.2.
With C116U C125U U146C the “polymerase ribozyme fitness (log ratio)” value was -0.74.
In the case of G140U A147U, the “polymerase ribozyme fitness (log ratio)” value is reported as -2.9.
For U104G U109A G133C, the “polymerase ribozyme fitness (log ratio)” value was -2.78.
For G124C G140C, the “polymerase ribozyme fitness (log ratio)” value was -4.05.
With C118G C129U the “polymerase ribozyme fitness (log ratio)” value was -1.77.
In the case of C108U A147C, the “polymerase ribozyme fitness (log ratio)” value is reported as -3.44.
In the case of A110U, the “polymerase ribozyme fitness (log ratio)” value is reported as -3.57.
For A110C, the “polymerase ribozyme fitness (log ratio)” value was ≤ -4.2.
With A110G the “polymerase ribozyme fitness (log ratio)” value was -2.42.
With A122G G124A U127A the “polymerase ribozyme fitness (log ratio)” value was -3.53.
For A138U G140A, the “polymerase ribozyme fitness (log ratio)” value was ≤ -4.2.
For C114U U135C, the “polymerase ribozyme fitness (log ratio)” value was -2.95.
With C125U G126A the “polymerase ribozyme fitness (log ratio)” value was -3.14.
With G141U A142C the “polymerase ribozyme fitness (log ratio)” value was -3.58.
With C116U G124A A142G the “polymerase ribozyme fitness (log ratio)” value was -2.45.
For C116U A119U U135C, the “polymerase ribozyme fitness (log ratio)” value was -2.59.
For A115G U135A, the “polymerase ribozyme fitness (log ratio)” value was -2.48.
For U109G A142C, the “polymerase ribozyme fitness (log ratio)” value was -2.18.
In the case of C103G C132A, the “polymerase ribozyme fitness (log ratio)” value is reported as ≤ -4.2.
With A137U G143U the “polymerase ribozyme fitness (log ratio)” value was -3.39.
For A107G C118A, the “polymerase ribozyme fitness (log ratio)” value was ≤ -4.2.
In the case of C114G, the “polymerase ribozyme fitness (log ratio)” value is reported as -2.54.
With C114U the “polymerase ribozyme fitness (log ratio)” value was -1.75.
For C114A, the “polymerase ribozyme fitness (log ratio)” value was -2.72.
With C125U U134G A142C the “polymerase ribozyme fitness (log ratio)” value was -3.76.
In the case of U146G A150G G152A, the “polymerase ribozyme fitness (log ratio)” value is reported as -1.84.
With U146A C149A the “polymerase ribozyme fitness (log ratio)” value was ≤ -4.2.
For U135A A147U, the “polymerase ribozyme fitness (log ratio)” value was -0.75.
For C103G C118U A119U G143C, the “polymerase ribozyme fitness (log ratio)” value was ≤ -4.2.
In the case of C131G A137U, the “polymerase ribozyme fitness (log ratio)” value is reported as -4.16.
For A106C C114A G140C G141C, the “polymerase ribozyme fitness (log ratio)” value was ≤ -4.2.
With A106G A115U C118G A138C U139G the “polymerase ribozyme fitness (log ratio)” value was ≤ -4.2.
For A121C G128C, the “polymerase ribozyme fitness (log ratio)” value was -2.44.
For A121G U134G, the “polymerase ribozyme fitness (log ratio)” value was -2.56.
In the case of C103A A122G U148A, the “polymerase ribozyme fitness (log ratio)” value is reported as ≤ -4.2.
In the case of G141U G143C, the “polymerase ribozyme fitness (log ratio)” value is reported as ≤ -4.2.
With U104G G141U the “polymerase ribozyme fitness (log ratio)” value was 0.973.
For U109A G141A A142U, the “polymerase ribozyme fitness (log ratio)” value was ≤ -4.2.
In the case of A121U C132U U146A, the “polymerase ribozyme fitness (log ratio)” value is reported as -0.968.
In the case of G126C A150G, the “polymerase ribozyme fitness (log ratio)” value is reported as -2.81.
For A137G U145G, the “polymerase ribozyme fitness (log ratio)” value was -1.02.
With A119U A137U the “polymerase ribozyme fitness (log ratio)” value was -4.12.
For U111A, the “polymerase ribozyme fitness (log ratio)” value was -3.05.
For U111C, the “polymerase ribozyme fitness (log ratio)” value was -1.77.
With U111G the “polymerase ribozyme fitness (log ratio)” value was -4.05.
With U109G G133C the “polymerase ribozyme fitness (log ratio)” value was -2.
